In PubChem BioAssay AID1030 (National Center for Advancing Translational Sciences (NCATS), 2008):
Values joined by “and” are separate entries in the source; they are usually repeats but may differ in a detail not shown here. Identical values can stand only once. About 16,000 (7.3%) of roughly 220,000 compounds were called active. Inconclusive means that the source gave no clear call. Such entries were picked first, then a sample of the others. The call rests on the fitted dose curve; in most records, active means well fitted inhibition curve with a large enough effect (not every such curve was filed as active); inconclusive means small, poorly fitted or top-dose-only effect, or another doubt; inactive means no such curve, though single readings can be large or run the other way. A potency beside an inconclusive call is a rough fit, not a confirmed value. More than one record can exist for a structure, and the calls need not agree.

target: Aldehyde dehydrogenase 1A1 (Homo sapiens) (UniProt P00352); assay: qHTS Assay for Inhibitors of Aldehyde Dehydrogenase 1 (ALDH1A1); settings: Purified ALDH1A1, NADH fluorescence, propionaldehyde substrate; series mostly up to 75.3 µM
Potency means the concentration at half of the fitted maximal effect; tags describe the fitted curve by direction and shape.

Chain of UniProt P00352 (P00352 whole entry, looked up): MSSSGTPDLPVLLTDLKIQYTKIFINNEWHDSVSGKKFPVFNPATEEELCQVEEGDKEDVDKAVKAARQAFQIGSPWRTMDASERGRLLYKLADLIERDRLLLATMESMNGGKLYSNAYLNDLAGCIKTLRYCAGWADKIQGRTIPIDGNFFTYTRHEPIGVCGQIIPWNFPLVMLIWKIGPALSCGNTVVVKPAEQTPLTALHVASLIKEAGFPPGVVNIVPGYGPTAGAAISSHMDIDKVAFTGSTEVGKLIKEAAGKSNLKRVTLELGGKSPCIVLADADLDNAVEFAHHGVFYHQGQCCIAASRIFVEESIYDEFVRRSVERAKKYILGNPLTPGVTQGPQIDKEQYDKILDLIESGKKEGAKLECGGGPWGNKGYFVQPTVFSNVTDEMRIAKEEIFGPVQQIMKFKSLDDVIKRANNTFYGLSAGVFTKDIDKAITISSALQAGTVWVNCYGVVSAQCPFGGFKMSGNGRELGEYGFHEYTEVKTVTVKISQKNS

SMILES	Potency
O=C(NCc1ccco1)c1ccccc1NS(=O)(=O)c1ccc2c(c1)OCCO2	inconclusive: 39.8 µM [inhibitor, single point]
CN1CCN(CCOC2Cc3ccccc3Sc3ccc(Cl)cc32)CC1 (stereo not given)	inconclusive: 28.2 µM [inhibitor, single point]
Cc1cc2[nH]c3c(c[n+](C)c4ccccc34)c2cc1C	inconclusive: 35.5 µM [inhibitor, single point]
COc1cc(Br)cc2cc(C(=O)N3CCN(C(=O)c4ccco4)CC3)c(=O)oc12	inconclusive: 20 µM [inhibitor, partial curve]
C=CCn1c(O)c(CN2CCN(Cc3ccccc3)CC2)c(C)c(C#N)c1=O	inconclusive: 31.6 µM [inhibitor, partial curve]
COc1ccc(-c2cc(-c3cccs3)nc(OC)c2C#N)cc1OC	inconclusive: 28.2 µM [inhibitor, partial curve]
Nc1nc(-c2ccccc2)cs1	inconclusive: 39.8 µM [inhibitor, single point] and inconclusive: 44.7 µM [inhibitor, single point]
Oc1ccc2oc3c(c2c1/C=N/n1cnnc1)CCCC3	inconclusive: 25.1 µM [inhibitor, single point]
Cc1cccn2c(=O)c3cc(C#N)c(=NC(=O)c4cccs4)n(CC(C)C)c3nc12	inconclusive: 15.8 µM [inhibitor, partial curve]
O=c1cnc2cnc(N3CCOCC3)nc2n1Cc1cccs1	inconclusive: 31.6 µM [inhibitor, partial curve]
O=C(CSc1nnc2scc(-c3ccc(F)cc3)n12)NCc1ccco1	inactive
CCC(C)Oc1nc(C)cc(C)c1S(=O)(=O)c1ccccc1C (stereo not given)	inconclusive: 39.8 µM [inhibitor, single point]
Cn1c(-c2sccc2OCc2ccc(Cl)cc2Cl)n[nH]c1=S	active: 31.6 µM
Nc1sc2c(c1C(=O)NCCc1ccccc1)CCC2	active: 20 µM
Cc1cc(C(=O)Nc2ccccc2C(=O)O)ccc1NC(=O)COc1cccc([N+](=O)[O-])c1	inconclusive: 31.6 µM [inhibitor, single point]
Cc1cc(C(=O)Nc2ccccc2N2CCOCC2)ccc1[N+](=O)[O-]	inconclusive: 39.8 µM [inhibitor, single point]
CCOc1ccc(C(C)=O)cc1COC(=O)c1cccnc1SC	active: 25.1 µM
CC1(C)OC2OC(COC(=O)c3ccc([N+](=O)[O-])cc3)C3OC(C)(C)OC3C2O1 (stereo not given)	inconclusive: 39.8 µM [inhibitor, single point]
CCCc1nnc(NC(=O)c2cccc(OC)c2)s1	inconclusive: 31.6 µM [inhibitor, single point]
O=C(Cc1cc(=O)[nH][nH]1)N/N=C/c1c(Cl)cccc1Cl	inactive and active: 11.2 µM
CCCCNC(=O)c1ccc2nc(-c3ccco3)c(-c3ccco3)nc2c1	active: 5.01 µM
COc1ccc(Cl)cc1NS(=O)(=O)c1ccc(S(=O)(=O)N2CCCC2)cc1	active: 28.2 µM
CN(C)c1ccc(C2CC(c3ccccc3)=Nc3nc(-c4ccccc4)cn32)cc1 (stereo not given)	inconclusive: 2.82 µM [inhibitor, full curve]

SMILES	Potency
COc1c(C)cccc1C(=O)Nc1ccc(N2CCOCC2)c(Cl)c1	inactive
COc1ccc(-c2cc(C(F)(F)F)n3nc(C(=O)NCCCn4ccnc4)cc3n2)cc1	inconclusive: 8.91 µM [inhibitor, partial curve]
O=C(O)CN1C(=O)C2C3CC(C2C1=O)C1C(c2ccc(F)cc2)c2sc(=O)[nH]c2SC31 (stereo not given)	inconclusive: 44.7 µM [inhibitor, single point]
COc1ccccc1N1CCN(C(=O)c2ccccc2Oc2ccccc2)CC1	active: 0.562 µM
Cc1ccc(Nc2nc(N)c([N+](=O)[O-])c(NCc3ccco3)n2)cc1C	inactive
COC(=O)c1ccc2c(c1)S(=O)(=O)NC(=NCc1ccco1)S2	inactive
CCOc1ccc(-c2n[nH]c(C)c2Oc2ccccc2OC)c(O)c1	inactive
COc1ccc(/C=C(\CC(=O)O)c2nc3ccccc3o2)cc1	inactive
CC1(C)Cc2c(C#N)c(N3CCN(C(=O)c4ccccc4Cl)CC3)nc(-c3ccco3)c2CS1	inconclusive: 14.1 µM [inhibitor, partial curve]
CCOc1ccc2nc(NC(=O)CSc3nc4c(c(=O)n(C)c(=O)n4C)n3C(C)C)sc2c1	inactive
O=C(NN1C(=O)C2C3C=CC(O3)C2C1=O)c1ccccc1 (stereo not given)	inconclusive: 35.5 µM [inhibitor, single point]
CCOC(=O)C1=C(C)NC(C)=C(C(=O)OCC)C1/C=C/c1ccccc1OC	inconclusive: 31.6 µM [inhibitor, single point]
CCC(C)[C@H](NC(=O)NCCCOC(C)C)C(=O)OC (stereo not given in full)	inactive
O=c1oc(-c2ccco2)nc2sc3c(c12)CCCC3	inconclusive: 15.8 µM [inhibitor, partial curve]
CCCCCCCCCCCCCCCC[n+]1ccc(C(N)=O)cc1	inactive
CC(C)NC(=O)CSc1nc(-c2cccs2)cc(-c2ccccc2)c1C#N	inconclusive: 25.1 µM [inhibitor, partial curve]
Nc1nnc(CC(=O)Nc2ccccc2)s1	inactive
O=C(c1ccco1)N1CCN(c2ncnc3scc(-c4ccccc4)c23)CC1	active: 11.2 µM
NC(=O)CNC(=O)[C@@H]1CC2(CC(c3ccc(Cl)cc3)=NO2)CN1C(=O)c1ccc(Br)cc1 (stereo not given in full)	inconclusive: 39.8 µM [inhibitor, single point]
N#Cc1cc(C#N)c(N2CCN(c3cccc(Cl)n3)CC2)nc1N	inconclusive: 1.26 µM [inhibitor, full curve]
Cc1ccc(C(C(=O)NC(C)(C)C)N(Cc2ccccc2)C(=O)c2snc(C(N)=O)c2N)o1 (stereo not given)	inconclusive: 28.2 µM [inhibitor, partial curve]
Cc1cc(C)n(CC(=O)NCc2cc(-c3nn(C)c(=O)c4ccccc34)ccc2C)n1	inconclusive: 22.4 µM [inhibitor, partial curve]
